# Hit rate of the full screen: of about 350,000 compounds, about 180 (0.051%) were called active. This list was built around the results that the source calls inconclusive (neither active nor inactive); the mix of calls is not that of the screen.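 Rule for the calls: active = mean replicate inhibition above about 25%, with every replicate also reaching it (limit read from the data, passing the limit was not always enough); inconclusive = only one of those two criteria met; inactive = neither criterion met.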 Some compounds were tested as several samples or in several runs, with calls that do not always agree.
# Biological target: Protein disulfide-isomerase A6 (Homo sapiens) (UniProt Q15084)
# Experiment: inhibitors of ERp5-driven insulin aggregation, primary screen, biochemical, turbidity, absorbance 650 nm, single point (AID 651711)
# Conditions: 90 min, at 9.99 µM, hits give high values
# UniProt Q15084, sequence (Q15084 whole entry, looked up): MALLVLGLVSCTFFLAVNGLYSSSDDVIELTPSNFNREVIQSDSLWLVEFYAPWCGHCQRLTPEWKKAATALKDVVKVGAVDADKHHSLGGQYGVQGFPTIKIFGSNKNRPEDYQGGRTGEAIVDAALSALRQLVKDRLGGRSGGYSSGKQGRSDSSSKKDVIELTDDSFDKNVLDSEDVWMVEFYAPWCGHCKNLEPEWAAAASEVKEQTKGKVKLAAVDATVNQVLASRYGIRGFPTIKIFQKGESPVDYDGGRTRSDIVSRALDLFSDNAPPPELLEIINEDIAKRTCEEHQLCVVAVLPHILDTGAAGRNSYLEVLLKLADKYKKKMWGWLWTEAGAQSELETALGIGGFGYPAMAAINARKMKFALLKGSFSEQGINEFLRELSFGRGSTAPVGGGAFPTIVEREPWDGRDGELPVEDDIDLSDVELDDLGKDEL
row,Structure (SMILES),inhibition
1,C=CCNC(=O)C(=O)N/N=C/c1ccco1,inconclusive: 53.4%
2,Cc1nnc(-c2ccccc2)nc1N(C)C,inconclusive: 34.7%
3,C[C@@H]1CN([C@H](C)CO)C(=O)c2cc(NS(=O)(=O)c3cccs3)ccc2O[C@@H]1CN(C)C,inactive: 8.99%
4,CO[C@H]1CN(C)C(=O)c2cc(NS(C)(=O)=O)ccc2OC[C@H](C)N(C(=O)CN(C)C)C[C@@H]1C,inactive: 5.87%
5,Cc1cnc(NC(=O)CC2CCCC2)s1,inconclusive: 32.7%
6,CCCNC(=O)Nc1ccc2c(c1)C(=O)N(C)C[C@@H](OC)[C@H](C)CN(C(=O)C1CCC1)[C@@H](C)CO2,inactive: -8.56%
7,C[C@H](CO)N1C[C@H](C)[C@H](CN(C)S(=O)(=O)c2cn(C)cn2)Oc2cc(C3=CCCCC3)ccc2S1(=O)=O,inconclusive: 26.5%
8,CN(C)CC(=O)N[C@@H]1CC[C@H](CCNC(=O)C2CCC2)O[C@H]1CO,inconclusive: 26.1%
9,CC[C@]12C(=O)N(C)C[C@H]([C@@H]3C(=O)N(Cc4ccccc4)C(=O)[C@@H]31)N2C(=O)c1ccc(F)cc1,inconclusive: 38.3%
10,CCCNC(=O)Nc1ccc2c(c1)OC[C@H](C)N(Cc1ccc(-c3ccccn3)cc1)C[C@@H](C)[C@H](OC)CN(C)C2=O,inactive: -4.12%
11,Cc1ccc(C(=O)NNC(=S)NC(=O)c2ccccc2)cc1,inactive: -2.57%
12,CCCN1C[C@H](C)[C@H](OC)CN(C)C(=O)c2ccc(NC(=O)C3CCC3)cc2OC[C@H]1C,inactive: -8.15%
13,O=C(CSc1n[nH]c(-c2ccccn2)n1)Nc1ccccc1F,inactive: 0.842%
14,O=C(C[C@H]1C[C@@H]2c3cc(NC(=O)C4CCC4)ccc3O[C@@H]2[C@H](CO)O1)NCC(F)(F)F,active: 43%
15,Cc1ccc(NC(=O)CCC(=O)NNC(=O)c2ccccc2[N+](=O)[O-])c(C)c1,inconclusive: 39.2%
16,CCc1ccc(Oc2nnnn2-c2ccc(C(N)=O)cc2)cc1,inconclusive: 42%
17,CC(=O)c1ccc(N2CCN(C(=S)Nc3ccccc3F)CC2)cc1,inconclusive: 35.3%
18,C[C@H](CO)N1C[C@H](C)[C@H](CN(C)Cc2ccc(C(F)(F)F)cc2)Oc2c(cccc2N(C)C)C1=O,inactive: 7.51%
19,CCOc1ccc2c(c1)C(C)=CC(C)(C)N2C(=O)Nc1ccccc1F,inactive: 5.73%
20,Cc1nnc(C)c2c(C)n(C(c3ccccc3)c3ccccc3)c(C)c12,inactive: -0.223%
21,O=C(Nc1ccc2c(c1)OCO2)Nc1ccc2c(c1)OCO2,inactive: 5.35%

row,Structure (SMILES),inhibition
1,CCOc1ccc(-c2cn[nH]c2N)cc1,inconclusive: 59.9%
2,O=C(NCCNC(=O)c1ccccc1[N+](=O)[O-])c1ccccc1[N+](=O)[O-],inconclusive: 33.6%
3,CCCOc1cc(N)ccc1C(=O)OCCN(CC)CC,inconclusive: 47.4%
4,Cc1ccc(S(=O)(=O)NNC(=O)CCCCC(=O)NNS(=O)(=O)c2ccc(C)cc2)cc1,inconclusive: 41.8%
5,CN1c2ccc(C#Cc3cccnc3)cc2[C@@H]2[C@@H](CCN2C(=O)C2CCCCC2)[C@H]1CO,inactive: 0.497%
6,CCNC(=O)Cn1cc(C(F)(F)F)cc(Cl)c1=O,inconclusive: 35.7%
7,CCOC(=O)C1CCCN(c2c(Nc3cc(C)cc(C)c3)c(=O)c2=O)C1 (stereo unspecified),inconclusive: 41.3%
8,CCCc1nc2c(=O)n(C)c(=O)nc-2n(C)n1,active: 84.7%
9,CCS(=O)(=O)c1ccc2c(c1)NC(=O)C(CCCl)O2 (stereo unspecified),inconclusive: 26.1%
10,COCCCNC(=S)N1CCN(c2ccccc2)CC1,inactive: -3.1%
11,Cc1nn(Cc2c(F)cccc2Cl)c(C)c1[N+](=O)[O-],inconclusive: 38%
12,Cc1ccc(NC(=O)c2cnn(-c3ccccc3)c2C)c(C)c1,inconclusive: 53.6%
13,O=C(O)/C=C/C(=O)Nc1ccc(OC(F)(F)F)cc1,inconclusive: 43.2%
14,COc1ccc(NC(=O)/C(=C/c2cccs2)NC(=O)c2ccco2)cc1,inconclusive: 38.8%
15,CN(C)C(=O)C[C@H]1C[C@H]2c3cc(NS(C)(=O)=O)ccc3O[C@H]2[C@@H](CO)O1,active: 33.1%
16,CC(=O)Nc1cccc(NC(=O)c2cc(-c3ccccn3)nc3ccc(Cl)cc23)c1,inactive: 0.299%
17,Cc1cc2oc3cc(NCCC4CCCN4C)ccc3c(=O)c2cc1C (stereo unspecified),inactive: 6.48%
18,COc1cc(C(=O)OC2CCOC2=O)c([N+](=O)[O-])cc1OC (stereo unspecified),inconclusive: 30.3%
19,Cc1ccc(S(=O)(=O)N2CCN(C(=O)CCc3nc4ccccc4c(=O)[nH]3)CC2)c(C)c1,active: 26.4%
20,Cc1cc2[nH]c3c(c[n+](C)c4ccccc34)c2cc1C,inactive: -1.26%
21,Cc1ccc(C(=O)N[C@H](C(=O)OCC(=O)c2ccc[nH]2)C(C)C)cc1,inconclusive: 40.8%

row,Structure (SMILES),inhibition
1,Cc1cccc(S(=O)(=O)N(C)C[C@H]2OCc3cnnn3CCCC(=O)N([C@@H](C)CO)C[C@H]2C)c1,active: 27.4%
2,COCCNC(=S)N(CCc1c(C)[nH]c2ccc(F)cc12)Cc1cccnc1,inactive: 1.95%
3,C[C@@H]1CN([C@H](C)CO)C(=O)Cc2cc(NS(=O)(=O)c3cccs3)ccc2O[C@H]1CN(C)S(=O)(=O)c1cn(C)cn1,inactive: -0.235%
4,CNS(=O)(=O)c1ccc(C(C)(C)C)cc1,inconclusive: 35.9%
5,CCOc1ccccc1Oc1coc2cc(OCC(=O)O)ccc2c1=O,inconclusive: 42.5%
6,CN(C)/C=C/C(=O)c1cnc(-c2ccccc2Cl)s1,inconclusive: 30.6%
7,CC(C)CCn1c(CN2CC(C)OC(C)C2)nc2c1c(=O)n(C)c(=O)n2C (stereo unspecified),inactive: -0.015%
8,CCCNC(=O)C[C@H]1C[C@@H]2c3cc(NC(=O)CC4CC4)ccc3O[C@@H]2[C@@H](CO)O1,active: 61.7%
9,CCC(=O)c1cn(CC(=O)Nc2ccccc2Cl)c2ccccc12,inactive: 3.48%
10,COc1ccccc1CNC(=O)c1cc(-c2ccccc2C)n(CC2CC(c3cccc([N+](=O)[O-])c3)=NO2)n1 (stereo unspecified),inconclusive: 32.6%
11,Brc1cccc(OCCSc2ncccn2)c1,inconclusive: 41.6%
12,COCC(=O)N(C)C[C@H]1Oc2cc(C#CCC3CCCC3)ccc2S(=O)(=O)N([C@H](C)CO)C[C@H]1C,inactive: -4.65%
13,CC(C)NC(=O)N(C)C[C@H]1Oc2c(NC(=O)C3CCCCC3)cccc2C(=O)N([C@H](C)CO)C[C@@H]1C,inconclusive: 44.4%
14,COc1ccc(/C=N/n2c(-c3ccco3)nc3ccccc3c2=O)cc1,inactive: -12.1%
15,COc1ccc(CNC(=O)C(C)OC(=O)C23CC4CC(CC(O)(C4)C2)C3)cc1 (stereo unspecified),inconclusive: 35.1%
16,COc1ccc(-c2nn(-c3ccccc3)cc2/C=N/O)cc1OC,inconclusive: 25.1%
17,COCC(=O)N(C)C[C@H]1Oc2cc(C#CC(C)(C)O)ccc2S(=O)(=O)N([C@H](C)CO)C[C@H]1C,active: 72.8%
18,CCn1cc(C(=O)NCCCN(C)C)c(=O)c2cc(F)c(N3CCN(C)CC3)cc21,inactive: 14.9%
19,C/C=C/c1ccc2c(c1)O[C@H](CN(C)Cc1cncnc1)[C@H](C)CN([C@@H](C)CO)S2(=O)=O,active: 28.7%
20,O=C(NCCCN1CCCC1)c1ccc(CS(=O)(=O)c2c(Cl)cccc2Cl)o1,active: 26.2%
21,O=C(O)c1cncc(C#CCC2CCCCC2)c1,inconclusive: 26.4%

row,Structure (SMILES),inhibition
1,Cc1ccc(CCc2nnc(SCC(=O)Nc3ccccc3Cl)n2-c2ccccc2)o1,inconclusive: 35.6%
2,CN(CC(=O)Nc1ccc(F)cc1)CC(=O)NC1CCCCC1,active: 25.2%
3,COCCCNC(=S)N1CCCC(c2nc3cc(C)c(C)cc3[nH]2)C1 (stereo unspecified),inconclusive: 43%
4,O=[N+]([O-])c1ccccc1S(=O)(=O)N1CCN(CC2CC=CCC2)CC1 (stereo unspecified),inconclusive: 30.4%
5,COc1cccc(-c2noc(CCCC(=O)N3CCOCC3)n2)c1,inconclusive: 43.7%
6,CN(C)Cc1c(O)ccc2occ(C(=O)c3ccc(F)cc3)c12,inconclusive: 60.7%
7,Cc1cccc(NS(=O)(=O)c2nnc(NC(=O)c3cccc(C)c3)s2)c1,inconclusive: 43.6%
8,C[C@@H]1CN([C@@H](C)CO)C(=O)c2cccc(NC(=O)NC3CCCCC3)c2O[C@H]1CN(C)Cc1ccc(C(F)(F)F)cc1,inactive: -0.661%
9,Cc1noc(C)c1S(=O)(=O)Nc1ccc2c(c1)C(=O)N([C@@H](C)CO)C[C@H](C)[C@@H](CN(C)S(=O)(=O)c1ccc(Cl)cc1)OCCCC[C@@H](C)O2,inactive: 8.12%
10,CCOC(=O)c1sc(C)c2c1NC1(CCCCC1)NC2=O,inconclusive: 42.4%
11,CC(C)CC#Cc1cnc2c(c1)C(=O)N([C@H](C)CO)C[C@H](C)[C@H](CN(C)Cc1ccccc1C(=O)O)O2,active: 37.4%
12,Cc1cc(C(=O)Nc2cccc3c2O[C@H](CN(C)C)[C@H](C)CN([C@@H](C)CO)C3=O)n(C)n1,inconclusive: 38.9%
13,CCc1cccc2c(N=O)c(O)[nH]c12,inconclusive: 37%
14,CCOc1ccc(NC(=O)CSc2nnc(Cc3cccn3C)n2-c2ccc(OC)cc2)cc1,inconclusive: 47.3%
15,CCOC(=O)C1(Cc2cccc(F)c2)CCN(Cc2ccon2)CC1,inconclusive: 39.6%
16,Nc1ccc(-c2nc3ccc(N)cc3s2)cc1,inconclusive: 48.3%
17,COc1ccc(NC(=O)C2Cc3c(-c4ccc(NC(C)=O)cc4)ccnc3O2)cn1 (stereo unspecified),inconclusive: 44.8%
18,C[C@@H]1CN([C@@H](C)CO)C(=O)c2cc(-c3ccc(F)cc3)cnc2O[C@H]1CN(C)C(=O)Cc1ccccn1,inconclusive: 27.8%
